B1: 135330265_135330946_5819_CDS_ENSG00000155561_ENST00000285968|human|control|control (ssRNA)
RNA: GGGAGUUCUACAGUCCGACGAUCCCCACUUCUAAAAUCUAGAUUGGUUUCUGAGGCGAAGGAAUCUUGCAGUCUUCUGCUUUUAAACAAGGUUCUCGAGGCAAAUAAGGAAUCUUGAGAAUCCGUGGGCAUGCAAUGUAACAACAACAGAGGAUUGAGCAUCA
B2: chr4:24541891:24541892:-_ENSG00000109606_ENST00000336812|perfect_dup|motif|central (ssRNA)
RNA: GGGAGUUCUACAGUCCGACGAUCGGAUCCCAAUUCAGUCAGAUCUCCAUCAUCAUUUAAAGCAGCCAAAUAAUUCAAAAGUUCGGGGGCUCUCAUCAGAGUUUCAGGAGCUGGUGGGUCCAUAAAAUCAAAGUGUACCAAGUCCAACAGAGGAUUGAGCAUCA
B3: chr2:55200753:55200754:-_ENSG00000115310_ENST00000317610|hu_mus|motif|central (ssRNA)
RNA: GGGAGUUCUACAGUCCGACGAUCUUGGAUUUUGGCCAUGGCAUCCUUAACGCUCUUGUUUGCAAGUCCUAGAUAAUGAUCGGUCUGCGCCUGAUGCCGUUCAUAUAUAACAGGAAUACUGAAGAGUGAGAUCAGAGCUAAAAUCAACAGAGGAUUGAGCAUCA
B4: chr7:151048522:151048523:+_ENSG00000013374_ENST00000566856|hu_mus|hu_hu_hu_mus_True|78_98 (ssRNA)
RNA: GGGAGUUCUACAGUCCGACGAUCCUGUUUCUUAUUUAUGACAAUUUUGAUGUAAUUUUCUUGAAGUCCGAAAGUUUCAGCUAUUUGACACCUCAGGUCUCUACCAGUGACAUGCAAGCGGGUCUCCAACAAGCUUUUCUUAUCCAACAGAGGAUUGAGCAUCA
B5: chr18:33362079:33362080:-_ENSMUSG00000024378_ENSMUST00000025236|mus_mus|FALSE|FALSE (ssRNA)
RNA: GGGAGUUCUACAGUCCGACGAUCUGACCUGCCUGCCUGCCAUUAUUGCCAGAGCUCACGUUACUCCAGAUCUGCCAACACGGAAACACAAACCCACCCACCUUCCCACCAACCAACCAAACGAAGGAAAGGGAAACACGUAAGCAACAGAGGAUUGAGCAUCA
B6: chr3:196509625:196509626:+_ENSG00000180370_ENST00000327134|hu_hu|FALSE|FALSE (ssRNA)
RNA: GGGAGUUCUACAGUCCGACGAUCAACAGAGGGCAAAGGUUUCAAACUGUGAUUGGCUGACAAAGGGUCUUUGCCUCCAGUGCUAAAGAUGGUGCUGCUCAUUCGCACAGGAGGUGCUGGAGGCUUAUCUUCCAGUUCUCCGUUCAACAGAGGAUUGAGCAUCA
B7: chr4:76721835:76721836:+_ENSG00000138768_ENST00000264904|hu_mus|hu_hu_hu_mus_True|38_78 (ssRNA)
RNA: GGGAGUUCUACAGUCCGACGAUCGUUUGGCUGGGGUUUCUGAGACGCUCUGGAAUAAACUCAUGUUUUGCUAAUAAAUCCUAGUUUCUCUAUGAAAUCUCUUUGCCCAAUCCUCUUCUCUAUUAGUUGCUUUAGUUUCUCUUUCAACAGAGGAUUGAGCAUCA
B8: chr15:76912013:76912014:-_ENSMUSG00000033565_ENSMUST00000166610|mus_hu|FALSE|FALSE (ssRNA)
RNA: GGGAGUUCUACAGUCCGACGAUCUUCUCAGUGUUGACACUGAAAACCAAAGACCCUUUCAUAAAAAGCAGAACUCCAUUUAUUCUUUCUUAGAAAAGGGAGCUGGAGGAAGCGGUGUUAAACACCAUCCCUGGAAAUGCAGCACAACAGAGGAUUGAGCAUCA
B9: chr11:72491332:72491333:+_ENSMUSG00000020794_ENSMUST00000021148|perfect_dup|FALSE|FALSE (ssRNA)
RNA: GGGAGUUCUACAGUCCGACGAUCAGCAUCUACAUUUGCAGGUGAGUCUCCAUUAGGAUCUGCCAGCAUAGAAAUGACACUAAUCAUGAUGGUUUCCACAGUAUGGAUAGGUAACCAGCGUUCCUCUGGCUUCUCAUAACCAUACAACAGAGGAUUGAGCAUCA
B10: 14247351_14250109_1196_CDS_ENSMUSG00000039219_ENSMUST00000039538|mouse|control|control (ssRNA)
RNA: GGGAGUUCUACAGUCCGACGAUCAUCCUCCAUGAACUUAUACAGCUGCUGAAGAAAGUUCUCCCUUUCCUCUGGAAAUGGUUCUAUUUCUUCCUCUUCUUCGCUGCUGUUAUCUUCUUUCUCUUUUUCAUCAUCUUCCUCCUCCAACAGAGGAUUGAGCAUCA
B11: 141319563_141319683_2449_3pUTR_ENSMUSG00000040697_ENSMUST00000038014|mouse|control|control (ssRNA)
RNA: GGGAGUUCUACAGUCCGACGAUCCCUCGGGAGGAGUCAGGGUCACAGGAGGCCACAGUCUCCUCAUCCACUGUCUUUAGUGGCUUGAAAAGGCAGAAAUACUUCUUGUGACCGUUCAGGGCCAGCACGUAGCCAGUGUAGUCUCAACAGAGGAUUGAGCAUCA
B12: 20976649_20976769_4193_CDS_ENSMUSG00000033382_ENSMUST00000025177|mouse|control|control (ssRNA)
RNA: GGGAGUUCUACAGUCCGACGAUCCGAUAACUUGGCGAAUACUCUUGGAGUUCCAAGGUUAUAAACGCCUGUAUGAACAAAGCAUGCCUUCAGCUGCAAACUGUGCAUCUCUUGGCUUUUCAGCUGGAGCUUAUACUGUGUCUGCAACAGAGGAUUGAGCAUCA
B13: 42913603_42913723_138_3pUTR_ENSMUSG00000059495_ENSMUST00000165665|mouse|control|control (ssRNA)
RNA: GGGAGUUCUACAGUCCGACGAUCGUAGGACGGGAACCGGGAUCCCUCCGGAGCUGGGGCAGGAUCGGCUCAGGGACGGGCGUCGGCUUCGGUCCCGAGUCGGCGGGGCCCGGCCCUCGGGUCCCCGCUCUAUCUGGGGCUGCGCAACAGAGGAUUGAGCAUCA
B14: chr14:67423352:67423353:-_ENSMUSG00000022048_ENSMUST00000022629|mus_mus|FALSE|FALSE (ssRNA)
RNA: GGGAGUUCUACAGUCCGACGAUCAAACUAGGAUAGCACAAAACUAUGGUGGUGGGGGCAAAACUAAGAUCUGCUCAGGCUAUGCCUGAGACCAAACUGGGUUGCCUGGCUUUAAGAGCAGACAGAGUUAAGAGGAAAAAAAAACAACAGAGGAUUGAGCAUCA

This passage reports binding signal results from publication PMC12136788.

Some of the results follow.

The assay concerns the target T1, UNK ZnF1-3 (human, UniProt Q9C0B0 31-174).
T1 sequence: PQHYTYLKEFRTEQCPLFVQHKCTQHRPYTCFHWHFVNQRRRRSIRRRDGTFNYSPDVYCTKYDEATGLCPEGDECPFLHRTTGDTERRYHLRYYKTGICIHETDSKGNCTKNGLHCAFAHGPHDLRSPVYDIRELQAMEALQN
Description: nsRBNS (natural sequence RNA bind-n-seq); RBNS binding buffer (assumed for nsRBNS): 25 mM Tris pH 7.5, 150 mM KCl, 3 mM MgCl2, 0.01% Triton X-100, 500 ug/ml BSA, 20 U/ml SUPERase-In, 4 C; UNK is unkempt and MSI1 is Musashi-1; names of the RNAs are library labels; protein concentration not given here; high values mean tight binding.
Consider B1, for which the binding signal was found to be 0.951 enrichment R.
The figure for B2 is 2.07 enrichment R; for B3 it is 1.27 enrichment R; for B4 it is 0.931 enrichment R.
The figure for B5 is 1.96 enrichment R; for B6 it is 0.661 enrichment R; for B7 it is 0.39 enrichment R.
Turning to B8, the binding signal stood at 0.804 enrichment R.
The value for B9 was 1.17 enrichment R; that for B10 was 0.324 enrichment R; that for B11 was 0.688 enrichment R.
The value for B12 was 0.441 enrichment R.
For the molecule B13, the binding signal came out at 0.641 enrichment R.
Molecule B14 registered a binding signal of 2.01 enrichment R.
